Not every entry of the source has a single result; some have several. They are shown here; other results are not. There may be further records. The values listed for one entry are repeats across runs, samples, wells, individuals or studies. Brackets with × say how often a value occurs here.
Tested on: 425362-245-T-J1 tumor spheroids, viability % test/control
Assay: Anticancer human tumor 425362-245-T-J1 patient-derived melanoma cell line growth inhibition
Conditions: stronger effect = lower value, spheroids with HUVEC and MSC
Source text: Multicellular complex tumor spheroid response to DNA repair inhibitors in combination with DNA-damaging drugs
This study explores the anticancer activities of DNA-damaging drugs and inhibitors of DNA damage repair, both as single agents and in combinations. Complex tumor spheroids comprised of malignant cells, endothelial cells and mesenchymal stem cells served as an in vitro model for human solid tumors. This model system incorporates physiologically relevant features and patient-derived or established malignant cell lines with clinically relevant genetic alterations from many tumor types. Twenty-six patient-derived or established malignant cell lines were evaluated representing sarcoma, melanoma, small cell lung cancer (SCLC), non-small cell lung cancer (NSCLC), as well as bladder, ovarian and pancreatic cancers. The concentration ranges selected for each drug and investigational agent were based upon clinically achievable concentrations if the clinical Cmax of the agent was known.
Compounds. The drugs and compounds olaparib (NSC753686), talazoparib (NSC767125), berzosertib (NSC777718), elimusertib (NSC800525), nedisertib (NSC802822), VX-984 (NSC792969), AZD-1390 (NSC803789), temozolomide (NSC362856), topotecan (NSC609699), trabectedin (NSC813783), staurosporine (NSC755774), and gemcitabine (NSC613327) were obtained from the National Cancer Institute (NCI) Developmental Therapeutics Program Chemical Repository. The FDA-approved anticancer drug set is available from the Developmental Therapeutics Program at https://dtp.cancer.gov/organization/dscb/obtaining/available_plates.htm. […] The stock solutions were prepared in dimethyl sulfoxide (DMSO, Sigma-Aldrich, St. Louis, MO, cat. D2650) at 400-fold the tested concentration and stored at -70 degrees C. Prior to their use, the stock solutions were diluted in fresh medium and the final DMSO concentration in the assay was 0.25% (v/v). […] If the clinical Cmax for an agent had not been determined, the highest concentration tested was 10 microM. […]
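Note: spheroids exposed to agents for 7 days; 100% = DMSO vehicle control viability.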

| Structure (SMILES) | viability, T/C (compound alone 1 µM) | viability, T/C (compound alone 10 µM) | viability, T/C (compound alone 0.003 µM) |
| --- | --- | --- | --- |
| Cn1nnc2c(C(N)=O)ncn2c1=O | 90, 97.1, 92.9, 99.2, 88.5, 86.6, 80.5, 95.5, 90.4, 114% | 112, 89.1, 108, 107 (2×), 102, 94.9, 106, 119, 124% |  |
| CC[C@@]1(O)C(=O)OCc2c1cc1n(c2=O)Cc2cc3c(CN(C)C)c(O)ccc3nc2-1 |  |  | 108, 78.5, 81.9, 87.1, 82.6, 91, 100, 99.4, 93.2, 109% |

— PubChem BioAssay AID1845198 (Molecular Pharmacology Branch, DTP, NCI, 2023)
